The record followed here is the RNAGym collection of RNA variant scans (doi:10.1101/gad.245936.114).

To fix the notation:
B1: tRNA (parent)
chain: CUCUCGGUAGCCAAGUUGGUUUAAGGCGCAAGACUUUAAUUUAUCACUACGAAAUCUUGAGAUCGGGCGUUCGACUCGCCCCCGGGAGAUUUUUUCCUCGAGCAA

Variants at the floor of the assay are shown more often than the library holds them.

The variants in the series derive from B1. In words: nonsense suppression (GFP-seq) (ratio to wild type); higher = more function; SUP4oc tRNA, yeast GFP reporter sort-seq. The procedure, abridged: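 Each variant's nonsense suppression (GFPSEQ) is a cell-share-weighted bin median GFP/RFP relative to the unmutated parent tRNA. Yeast with genome-integrated tRNA variants from a ~3% random-mutation library, a galactose-driven GFP ochre reporter and RFP were grown in raffinose/galactose medium with 80 mg/L adenine, then sorted into GFP/RFP bins for Illumina sequencing. Variants needed ≥100 reads and ≥30 cells.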
Consider CUCUCGGUAGCCAAGUUGGUUUAUGGCGCAAGACUUUAAUUUAUCACUACGAAAUCUUGAGAUCGGGCGUUCGACUCGCCCCCCGGAGAUUUUUUCCUCGAGCAA [A24U G84C], for which the nonsense suppression worked out at 0.107.

On to CUCUCGGUAGGCAAGUUGGUUUAAGGCGCAAGACUUUAAUUUAUCACUACGAAAUCUUGAGAUCGGGCGUUCGACUCGCCCCCGCGAGAUUUUUUCCUCGAGCAA [C11G G85C], for which the nonsense suppression was not above 0.026.

Turning to CUCUCGGUAGCCAAGUUGGUUUAAGGCGCAAGCCUUUAAUUUAUCACUACGAAAUCUUGAGAUCGGUCGUUCGACUCGCUCCCGGGAGAUUUUUUCCUCGAGCAA [A33C G67U C80U], the nonsense suppression was not above 0.026.

With CUCUCGGUAGCUAAGUUGGUUUAAGGCGCAAGACUUUAAUUUAUCACUACGAAAUCUUGAGAUCGGGCGUUCGACUCGCCACCGGGAGAUUUUUUCCUCGAGCAA [C12U C81A], the nonsense suppression was determined as 0.0405.

As for CUCUCGGUAGACAAGUUGGUUUAACGCGCAAGACUUUAAUUUAUCACUACGAAAUCUUGACAUCGGGCGUUCGACUCGCCCCCGGGAGAUUUUUUCCUCGAGCAA [C11A G25C G61C], the nonsense suppression was not above 0.026.

Consider CUCUCGGUAGCCAAGUUGGUUUAAGGCGCAAGACUUUAAUUUAUCACUACGAAAUCUUGAGGGCGGGCUUUCGACUCGCCCCUGGGAGAUUUUUUCCUCGAGCAA [A62G U63G G69U C83U], for which the nonsense suppression is not above 0.026.

As to CUCUCGUUAGCCAAGUUGGUUUAAGGCGCAACACUUUAAUUUAUCACUACGAAAUCUUGAGAUCGGGCGUUCGGCUCGCCCCCGGGAGAUUUUUUCCUCGAGCAA [G7U G32C A74G], the nonsense suppression is not above 0.026.

Consider CUCUCGGUAGCCAAGUUGGUUUAGAGCGCAAGACUUUAAUUUAUCACUACGAAAUCUUGAGAUCGGGCGUUCGACUCGCCCCCGGGAGAUUUUUUCCUCGAGCAA [A24G G25A], for which the nonsense suppression was not above 0.026.

CUCCCGGUAGCCAAGUUGGUUUAAGGCGUAAGACUUUAAUUUAUCACUACGAAAUCUUGAGAUCGGGCGUUCGACUCGCCCCCGGGAGAUUUUUUCCUCGAGCAA [U4C C29U]: the nonsense suppression was found to be 1.03.

Take CUCUCUGUAGCCAAGUUGGUUUAAGGCGCAGGACUUUAAUUUAUCACUACGAAAUCUUGAGAUCGGGCGUUCGACUCGCCCCCGGGAGAUUUUUUCCUCGAGCAA [G6U A31G]: the nonsense suppression is not above 0.026.

Consider CUCUCGGUGGCCAAGUUGGUUUAAGGCGCAAGACUUUAAUUUAUCACUACGAAAUCUUGAGAUCGGACGUUCGACUCGCCCCCGGUAGAUUUUUUCCUCGAGCAA [A9G G67A G86U], for which the nonsense suppression was not above 0.026.

Turning to CUCUCGGUAGCCUAGUUUGUUUAAGGCGCAAGACUUUAAUUUAUCACUACGAAUUCUUGAGAUCGGGCGUUCGACUCGCCCGCGGGAGAUUUUUUCCUCGAGCAA [A13U G18U A54U C82G], the nonsense suppression was not above 0.026.

With CUCUCCGUAGCGAAGUUGGUUUAAGGCUCAAGACUUUAAUUUAUCACUACGAAAUCUUGAGAUCGGGCGUUCGACUCGCCCGCGGGAGAUUUUUUCCUCGAGCAA [G6C C12G G28U C82G], the nonsense suppression was not above 0.026.

For the variant CUCUCGGUAGCCAAGUUGGUUGAAGGCGCAAGACUUUAAUUUAUCACUACGAAAUCUUGAGACCGGGCGUUCGACUCGCCCCCGGGAGAUUUUUUCCUCGAGCAA [U22G U63C], the nonsense suppression worked out at 0.868.

As for CCCUCGGUAGCCAAGUUGGUUUAAGGCGCUAAACUUUAAUUUAUCACUACGAAAUCUUGAGAUCGGCCGUUCUACUCGCCCCCGGGAGAUUUUUUCCUCGAGCAA [U2C A30U G32A G67C G73U], the nonsense suppression is not above 0.026.

On to CUCUCGGUAGCCAAGUUGGUUUAAGGUGCAAGACUUUAAUUUAUCACUACGAAAUCUUGAGAUCGGGCCUUCGACUCGCCCCCGGGAGAUUUUUUCCUCGAGCAA [C27U G69C], for which the nonsense suppression was not above 0.026.

Regarding CUCUCGGUAGCCAAGUUGGUUUAAGGCGCAAGACUUUAAUUUAUCACUACGAAAUCUUGAGAUCGGGCGUUCGGAUCGCCCCCGGCAGAUUUUUUCCUCGAGCAA [A74G C75A G86C], the nonsense suppression was not above 0.026.

As for CUCUCGGUGGCCAAGUUGGUUUAGGGCGCAAGACUUUAAUUUAUCACUACGAAAUUUUGAGAUCGGGCGUUCGACUCGCCCCCGGGAGAUUUUUUCCUCGAGCAA [A9G A24G C56U], the nonsense suppression is not above 0.026.

As to CUCUCGGUAGCCAAGUUGGUUUUAGGCGCAAGACUUUAAUUUAUCACUACGAAAUCUUGAGAUUGGGCGUUCGACUCGCCCCCGGGAGAUUUUUUCCUCGAGCAA [A23U C64U], the nonsense suppression was not above 0.026.

As to UUCUCGGUAGCCAAGUUGGUUUAAGGCGCAAGACUUUAAUUUAUCACUACGAAAUCUUGAGAUAGGGCGUUCGACUCGCGCCCGGGAGAUUUUUUCCUCGAGCAA [C1U C64A C80G], the nonsense suppression is not above 0.026.

Regarding CUCUCCGUAGCCAAGUUGGUUUAAGGCGCAAGACUUUAAUUUAUCACUACGAAAUCUUGAGAUCGGGCGUUCGACCCGCCCCCGGGAGAUUUUUUCCUCGAGCAA [G6C U76C], the nonsense suppression was not above 0.026.

For CUCUCGGUAGCCAAGUUGGUUUAAGGCGCACGACUUUAAUUUAUCACUACGAAAUCUUGAGAUCGGGCGUUCGACUCGCCCCGGUGAGAUUUUUUCCUCGAGCAA [A31C C83G G85U], the nonsense suppression is not above 0.026.

As to CUCUCGGUAGCCAAGUUGGUGCAAGGCGCAAGACUUUAAUUUAUCACUACGAAAUCUUGAGAUCGGGCGUUCGACUCGCCCUCGGGAGAUUUUUUCCUCGAGCAA [U21G U22C C82U], the nonsense suppression worked out at 0.199.

Consider CUCUCGGUAGCCUAGUUGGUUUAGGGCGCAAGACUUUAAUUUAUCACUACGAAAUCUUGACAUCGGGCGUUCGACUCGCCCCCGGGAGAUUUUUUCCUCGAGCAA [A13U A24G G61C], for which the nonsense suppression was found to be 0.0375.

With CUCUCGGUAGCCAAGUUUGGUUAAGGCGCAAGACUUUAAUUUAUCACUACGAAAUCUUGAGAUCCCGCGUUCGACUCGCCCCCGGGAGAUUUUUUCCUCGAGCAA [G18U U20G G65C G66C], the nonsense suppression is not above 0.026.

Take CUCUCGGUAGCCAAGUUGGUUUAAGCCGCAGGACUUUAAUUUAUCACUACGAAAUCUUGAGACCGGGCGUUCGACUCGCCCUCGGGAGAUUUUUUCCUCGAGCAA [G26C A31G U63C C82U]: the nonsense suppression was not above 0.026.

As for CUCUCGGUAGCCAAGUUGGUUUAAGGCGCAAGACUUUAAUUUAUCACUACGAAAUCUUGAGAUCGGGCGUUCGACUCGCCCCCGGGCAAUUUUUUCCUCGAGCAA [A87C G88A], the nonsense suppression was not above 0.026.
